The results in this text go back to PubChem BioAssay (EPA / NIEHS).

For part of these data: Shown are results outside the selection of hits, which stands elsewhere. The list shows a part of the results, in another mix than the full data. Inconclusive results are not listed. More than one record can exist for a structure, and the calls need not agree. The source made the active and inactive calls. The calls were made as follows, unless noted: active = hit-call score of the fitted dose curve at least 0.9, where 1 is the maximum; inconclusive = response in the unintended direction; inactive = score below 0.9.

The target of test [1] is human Retinoid X Receptor beta (RXRb), RXRB (gene 6257) (UniProt P28702). The experiment in a line: ATG_RXRb_TRANS: Attagene TRANS-FACTORIAL HepG2 Assay for human Retinoid X Receptor beta (RXRb) (AID 2283013). In outline:
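Read-out: reporter mRNA induction via RT-PCR plus capillary electrophoresis fluorescence, analysed as signal increase relative to DMSO. Cells were human HepG2, transiently transfected with GAL4-UAS reporter constructs and chimeric receptor-Gal4 fusions, dosed for 24 h.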

Read-out in test [2]: Transforming growth factor beta 1 (TGFb1), TGFB1 (gene 7040)
Description: BSK_KF3CT_TGFb1: BioMAP Diversity Plus: KF3CT Assay for Transforming growth factor beta 1 (TGFb1) Biomarker Activity (AID 2283072; active = hit-call score of the fitted dose curve at least 0.9, where 1 is the maximum; inactive = score below 0.9). Conditions: actives raise or lower the signal; primary human keratinocytes with fibroblasts. The essentials:
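Read-out: ELISA for TGF-b1 in keratinocyte/foreskin fibroblast human skin co-culture, 24 h after dosing; bidirectional curve fit vs DMSO baseline; gain or loss of signal scored.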

Read-out in test [3]: Vascular cell adhesion molecule 1 (VCAM1), VCAM1 (gene 7412)
Description: BSK_LPS_VCAM1: BioMAP Diversity Plus: LPS Assay for Vascular cell adhesion molecule 1 (VCAM1) Biomarker Activity (AID 2283086; active = hit-call score of the fitted dose curve at least 0.9, where 1 is the maximum; inactive = score below 0.9). Conditions: actives raise or lower the signal; primary human HUVEC with PBMC. In outline: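 ELISA read-out of VCAM-1 at 24 h post-dosing in an LPS-driven HUVEC/PBMC primary human co-culture; gain or loss of signal fitted bidirectionally against DMSO baseline. Cytotoxicity tracked in parallel cultures by SRB total-protein staining.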

In test [4] the target is rat Androgen Receptor (AR), Ar (gene 24208) (UniProt P15207). The experiment in a line: NVS_NR_rAR: NovaScreen (NVS) Nuclear Receptor Binding Assay for rat Androgen Receptor (AR) (AID 2283366). In outline:
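Actives from a duplicate single-concentration (25 uM) primary run went on to concentration series. Displacement of radioligand was counted by filtration and scintillation, 18 h post-dose, using prostate extracts from testosterone-pretreated rats, with DMSO as baseline.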

Read-out in test [5]: Insulin-like growth factor-binding protein 1 (IGFBP1), IGFBP1 (gene 3484)
The experiment in a line: LTEA_HepaRG_IGFBP1: Life Technologies and Expression Analysis (LTEA) Assay for Insulin-like growth factor-binding protein 1 (IGFBP1) using HepaRG (AID 2283508; active = hit-call score of the fitted dose curve at least 0.9, where 1 is the maximum; inactive = score below 0.9). Conditions: actives raise or lower the signal; mRNA level, 48 h. The essentials: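 Differentiated human HepaRG cells in serum-free induction medium were exposed in duplicate for 48 h to eight concentrations, top 100 uM with half-log dilutions, in 0.5% DMSO. Transcript levels came from qRT-PCR normalised to ACTB, GAPDH and POLR2A, fitted bidirectionally against DMSO.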

In test [6] the target is human Thyroid Receptor alpha (THRa1), THRA (gene 7067) (UniProt P10827). Description: ATG_THRa1_TRANS: Attagene TRANS-FACTORIAL HepG2 Assay for human Thyroid Receptor alpha (THRa1) (AID 2283014). The essentials: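 HepG2 cells transiently transfected with multiplexed GAL4-UAS reporter units for exogenous chimeric THRa1-Gal4; reporter mRNA measured 24 h after dosing by RT-PCR, 6-FAM labelling, HpaI digestion and capillary electrophoresis. Gain-of-signal fitted versus DMSO baseline.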

Test [7] deals with Retinoic acid receptor RXR-alpha (Homo sapiens) (UniProt P19793). Description: OT_NURR1_NURR1RXRa_1440: Odyssey Thera (OT) 24-hour HEK293T Protein Complementation Assay for Nurr1/retinoid X receptor (RXR) (AID 2283386). The essentials:
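Fluorescence PCA read-out; HEK293T; 24 h post-dose; bait/prey fused to reporter fragments; gain-of-signal fit vs DMSO negative control.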

Read-out in test [8]: Fatty acid synthase (Homo sapiens) (UniProt P49327)
The experiment in a line: LTEA_HepaRG_FASN: Life Technologies and Expression Analysis (LTEA) Assay for Fatty Acid Synthase (FASN) using HepaRG (AID 2283448; active = hit-call score of the fitted dose curve at least 0.9, where 1 is the maximum; inactive = score below 0.9). Conditions: actives raise or lower the signal; mRNA level, 48 h. In outline: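 HepaRG, 48 h exposure, 8-pt half-log series top 100 uM, 0.5% DMSO vehicle, duplicates. Readout: FASN transcript by Fluidigm qRT-PCR; housekeeping-normalized; bidirectional curve fit vs DMSO baseline.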

Test [9] can be described thus: CCTE_Mundy_HCI_Cortical_NOG_NeuronCount: CCTE's Neurite Outgrowth Assay in rat cortical cells for Neuron Count, Mundy Lab (AID 2284236).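 Also: neurons counted by imaging betaIII-tubulin and Hoechst stained cortical cells; cells exposed to compound for about 48 hours before fixation.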 The essentials:
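Read-out: neuron number by high-content imaging of betaIII-tubulin (Alexa Fluor-488) and Hoechst-labelled rat primary cortical cells.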

Turning to `CC(C)(C)CC(C)(C)c1ccc(O)cc1`, the AC50 is active: 13.3 µM in [1], active: 7.41 µM in test [2], active: 11.7 µM in test [3] and active: 17.1 µM in [4]. The compound was called inactive in [5].

As to `CCOC(=O)CC(SP(=S)(OC)OC)C(=O)OCC` (centres undefined), the compound was called inactive in test [6], in test [7] and in [8]. Besides, in [9], the AC50 is active: 50 µM.
